Some of the results follow. These are noisy estimates, calculated here from bound and input reads.
target: T1, Pho4 (S. cerevisiae) (UniProt P07270); assay: relative binding free energy (BET-seq); higher = weaker binding; conditions: reference: library average
T1 sequence: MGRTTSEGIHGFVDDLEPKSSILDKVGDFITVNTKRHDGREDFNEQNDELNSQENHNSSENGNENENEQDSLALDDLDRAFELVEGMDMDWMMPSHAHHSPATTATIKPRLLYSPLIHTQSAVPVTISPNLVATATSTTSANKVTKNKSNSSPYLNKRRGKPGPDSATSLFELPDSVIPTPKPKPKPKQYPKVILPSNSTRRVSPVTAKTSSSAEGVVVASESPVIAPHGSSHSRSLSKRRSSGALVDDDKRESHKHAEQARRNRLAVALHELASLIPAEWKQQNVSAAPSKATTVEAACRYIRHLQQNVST

Relative binding free energy, 0.22 kcal/mol:
GGTTTCACGTGGGTGA

Relative binding free energy, -0.04 kcal/mol:
ACATACACGTGGTTTG

Relative binding free energy, 0.25 kcal/mol:
TGGCTCACGTGTTTGA
AGTGTCACGTGAGGCC

Relative binding free energy, 0.15 kcal/mol:
GTTTGCACGTGCGGAG
TGGAACACGTGTAGTA
ATTGACACGTGGAATT
CTTTACACGTGTGATG
TCGTTCACGTGGTCAG
TAGGTCACGTGTCGAA

Relative binding free energy, 0.14 kcal/mol:
ACGGGCACGTGAGATG
AGTAGCACGTGTAAGA
GGCGACACGTGTGTTA
AACGGCACGTGACGTG
CAGGTCACGTGTATGA

Relative binding free energy, -0.17 kcal/mol:
TGGAGCACGTGTACGG
ATTTGCACGTGGGATA
TGGGCCACGTGTGTCG

Relative binding free energy, 0.23 kcal/mol:
AGCTTCACGTGGTGAG
AGTTTCACGTGTGGGA
AGTTTCACGTGCGTCT

Relative binding free energy, 0.29 kcal/mol:
GGCAGCACGTGAATGT
TTTGGCACGTGAAGTC

Relative binding free energy, -0.14 kcal/mol:
ATGGCCACGTGGTCGT

Relative binding free energy, -0.07 kcal/mol:
GATGGCACGTGTCGGG
TATAACACGTGGGGGC

Relative binding free energy, -0.19 kcal/mol:
TATAGCACGTGTCGGT
TGCAGCACGTGTGGGG

Relative binding free energy, 0 kcal/mol:
GTACTCACGTGGGAGT
TGACTCACGTGTAGTG
TGTTACACGTGCTATT
GTAGTCACGTGGCATT
TTTATCACGTGCGCGT

Relative binding free energy, -0.1 kcal/mol:
GGATGCACGTGGGGTC
TTATACACGTGTTCGT
CGGCGCACGTGTGGAG
GTTGGCACGTGCTTGG

Relative binding free energy, 0.26 kcal/mol:
TGCTGCACGTGAAGGG
TAGTTCACGTGATTCT
TTTATCACGTGAGTGC
AAGTTCACGTGGTTCT

Relative binding free energy, 0.37 kcal/mol:
TCGGTCACGTGAATAG

Relative binding free energy, 0.07 kcal/mol:
GCTTTCACGTGGGTAG
GTGGCCACGTGTTGTG
TGAGTCACGTGTGCGG
GGTTCCACGTGGAGAG
TATTGCACGTGATTAT
CTAGTCACGTGTATAT

Relative binding free energy, -0.06 kcal/mol:
GGTGACACGTGTTAGA
GGGTGCACGTGTTAGC
TGTAACACGTGGTTCG
TGATGCACGTGTTAGG
TTGAACACGTGCGCGT
TGGGCCACGTGTGATT

Relative binding free energy, 0.05 kcal/mol:
TTATACACGTGCCGGT
AGAGGCACGTGAAGGT
GGATACACGTGGCTGT
TATGTCACGTGGTGGT
TAAGTCACGTGTTTCG

Relative binding free energy, -0.02 kcal/mol:
TTGTCCACGTGTGGAG
CTTGTCACGTGGGCAG

Relative binding free energy, 0.31 kcal/mol:
GTCTTCACGTGTTAGG
CTGGTCACGTGAATAT
GTGGACACGTGAAGGT

Relative binding free energy, 0.13 kcal/mol:
TCAGTCACGTGTAGGT
AGGAACACGTGGATTA
CTAGTCACGTGTTCGT
TTATTCACGTGCTGGA
TCTGTCACGTGTTAGA

Relative binding free energy, 0.04 kcal/mol:
TTATGCACGTGTATAG
AAAGGCACGTGTGGAA
TATATCACGTGGCGAT
CGTTGCACGTGGGAAA

Relative binding free energy, -0.15 kcal/mol:
ATGGGCACGTGTAGCT
GGAAGCACGTGGTAAG
GTCTGCACGTGGGTTG

Relative binding free energy, 0.08 kcal/mol:
TGTATCACGTGGCGTT
GGTCGCACGTGAGTGG
TCGGTCACGTGGGCGC
TAAGTCACGTGCAGTG
ACTGTCACGTGTTTAT

Relative binding free energy, -0.24 kcal/mol:
TGGTGCACGTGGTACG

Relative binding free energy, -0.18 kcal/mol:
TGTGCCACGTGGAGTA
CTATGCACGTGGCGTG
CGTGGCACGTGGGAAT
TATACCACGTGGTAGT

Relative binding free energy, -0.2 kcal/mol:
TTAGGCACGTGGCGGC
TCGGGCACGTGGGACT
TAGCGCACGTGGCAGG

Relative binding free energy, 0.33 kcal/mol:
ATCTTCACGTGAATGT
TGGATCACGTGATTTG
GTTGACACGTGAGAGT

Relative binding free energy, -0.16 kcal/mol:
AGGTGCACGTGCATAG
AATGGCACGTGGATGG
TTGTACACGTGCTATG
ATAGGCACGTGGGCTC
CGTGACACGTGGTGTG

Relative binding free energy, -0.03 kcal/mol:
AAGTGCACGTGTTGTT

Relative binding free energy, -0.27 kcal/mol:
TGAGGCACGTGCCGGT

Relative binding free energy, 0.12 kcal/mol:
GTGGACACGTGTCTGT
GGTTACACGTGGTACA
CGTAACACGTGATGTA
CGTATCACGTGCTTGT
TGGATCACGTGTTTGT
TCGGCCACGTGATGTG
TGTATCACGTGTTTTG
TACTGCACGTGTAGCG
ATTACCACGTGTCTGG

Relative binding free energy, 0.3 kcal/mol:
GAGGACACGTGAGGTA

Relative binding free energy, 0.39 kcal/mol:
GTTCTCACGTGCAGGG
GGAATCACGTGTAAAG
ATGTTCACGTGGAAGG

Relative binding free energy, 0.35 kcal/mol:
GGTTACACGTGAGTGG

Relative binding free energy, 0.06 kcal/mol:
CTTTACACGTGTCGGT
GCGGCCACGTGTGGAG
TGGTGCACGTGTAGGT
TGATACACGTGTTTTT
AGGGTCACGTGTGCAG
AATTGCACGTGTCTGT
TTTTGCACGTGGTGCG
TGAGTCACGTGGTGTG
CTGGACACGTGAGGGG

Relative binding free energy, 0.49 kcal/mol:
TGGCTCACGTGATGTT
TTCTTCACGTGAGGAT

Relative binding free energy, -0.33 kcal/mol:
AATGGCACGTGGGCAG

Relative binding free energy, -0.05 kcal/mol:
TGAGGCACGTGTTGGG
CTGTACACGTGTGTAG
ATAGTCACGTGGGGGG
AATGTCACGTGGTTAA
CGCGACACGTGTGGGT
GTTGGCACGTGCGGCA
TGGGTCACGTGGTCCG
CGCGGCACGTGGTTTT
CTGGACACGTGGTGTG

Relative binding free energy, 0.28 kcal/mol:
TGTGTCACGTGAGCTG
CGTCTCACGTGTGGGC
TTTCTCACGTGGATAA
GTGGACACGTGAGGTG

Relative binding free energy, 0.24 kcal/mol:
GCTTTCACGTGGGCAT
TGCGTCACGTGAGAGG
ATGTTCACGTGTAGCT
TGGAACACGTGAAGGG
CGGTACACGTGTGATG
GGTTACACGTGTGCGA
TTTCTCACGTGTTCGG

Relative binding free energy, -0.22 kcal/mol:
CTGTGCACGTGCGGGA
TAACGCACGTGGGGCG
TTATGCACGTGGTGTT

Relative binding free energy, 0.19 kcal/mol:
TTATACACGTGAGTAA
TAACGCACGTGCGATG
GGAGTCACGTGTGGGC
TTTCTCACGTGCGGTA

Relative binding free energy, 0.11 kcal/mol:
GGCGACACGTGTTGTT
GGAAACACGTGTGTTT
TCTCTCACGTGTGGGT
GTGTACACGTGTGGGG
AAGATCACGTGGTAGG

Relative binding free energy, -0.01 kcal/mol:
GGGTCCACGTGGTAGT
TTCTGCACGTGTTTTG
CGTTGCACGTGTCGTT
TGGGCCACGTGTAGCT
GTACACACGTGGGTTG

Relative binding free energy, 0.03 kcal/mol:
TGTTACACGTGGGAGG
AGTTCCACGTGGTTTT
TCTTGCACGTGTACGG

Relative binding free energy, 0.01 kcal/mol:
CGGATCACGTGTGCGG
ATTGGCACGTGTAATC
AAGATCACGTGTTTGG
TTCGTCACGTGGGGAT

Relative binding free energy, -0.08 kcal/mol:
TCTCGCACGTGGGGGT
TGGTCCACGTGGGGGG
TGGGGCACGTGATCTA
CTTGCCACGTGTTTGG

Relative binding free energy, -0.25 kcal/mol:
AACGGCACGTGGGTTT
ACCGGCACGTGGGTGT
AATAGCACGTGGGTCG

Relative binding free energy, -0.28 kcal/mol:
ATGCGCACGTGGGGAT
AGGGCCACGTGCCGGG
TTCGGCACGTGGTCGT

Relative binding free energy, -0.13 kcal/mol:
TTTAGCACGTGGACAG

Relative binding free energy, 0.42 kcal/mol:
AATTTCACGTGATTTG

Relative binding free energy, 0.16 kcal/mol:
TGTGCCACGTGATTTT
TTGCTCACGTGATCGT
TTAATCACGTGTACGT
TTGTGCACGTGAACTG

Relative binding free energy, 0.1 kcal/mol:
AGATGCACGTGAGCGT
TGGCTCACGTGGCCGG
GGGCGCACGTGATGGA
TGCGACACGTGGACGG
TGTGACACGTGCTAAT
TTGTGCACGTGATGAA

Relative binding free energy, 0.21 kcal/mol:
GATTGCACGTGAGGAA
AGGTTCACGTGTATAG
CAAGTCACGTGAGGTT
TGGAGCACGTGAGATG

Relative binding free energy, 0.02 kcal/mol:
TAAGCCACGTGTCGGG
ATAAACACGTGTTTAT
GTAAACACGTGGTCAG

Relative binding free energy, -0.12 kcal/mol:
TACGGCACGTGGTTAT

Relative binding free energy, 0.09 kcal/mol:
TGGATCACGTGGAGCT

Relative binding free energy, -0.11 kcal/mol:
TTTGACACGTGCTTGG
TTTGCCACGTGCTGTA
GTAACCACGTGTTGGT
ATTTGCACGTGGGTGG

Relative binding free energy, 0.27 kcal/mol:
TAGCTCACGTGTGGCT

Relative binding free energy, -0.09 kcal/mol:
AGAGGCACGTGGTATA
AGCTCCACGTGGGGTT
GTAAGCACGTGCGTGG
ATGGGCACGTGTTGTG
TTTGCCACGTGTTTAT
TGGTGCACGTGGGAAG

Relative binding free energy, 0.32 kcal/mol:
TGGTACACGTGACAGA
AGTTTCACGTGGATTG
AGTTTCACGTGACGTT

Relative binding free energy, -0.21 kcal/mol:
ATTAGCACGTGGGGCA
TTATGCACGTGGTACT

Relative binding free energy, -0.23 kcal/mol:
TTTGCCACGTGCGGGT

Relative binding free energy, 0.2 kcal/mol:
GCGATCACGTGATGGG
ACTGACACGTGAGGGT
TTGTGCACGTGATTTA
GAAGTCACGTGTAGTA

Relative binding free energy, 0.17 kcal/mol:
ATTATCACGTGAGCGT
GGCATCACGTGTATTG
TTTTTCACGTGCAATA
GATGTCACGTGGTGAT
TAGTACACGTGTGGGG
TAGAGCACGTGAGCGG

Relative binding free energy, 0.18 kcal/mol:
ATAGTCACGTGTACAT
ATATGCACGTGAGAGT
TCGGTCACGTGTTTGC

From the BET-seq Pho4 binding data (Le et al. 2018)
